The source of these data is PubChem BioAssay AID1645882 (National Center for Advancing Translational Sciences (NCATS), 2021).

Hit rate of the full screen: of about 16,000 compounds, about 120 (0.75%) were called active. Roughly 4% stayed inconclusive and do not appear here. The call rests on the fitted dose curve; in most records, active means well fitted inhibition curve with a large enough effect; inconclusive means small, poorly fitted or top-dose-only effect; inactive means no such curve, though single readings can be large or run the other way. This is one part of the list.

In the experiment the target is Rap guanine nucleotide exchange factor 3 (Homo sapiens) (UniProt O95398). The experiment is described as follows: Validation qHTS for antagonist of cAMP-regulated guanine nucleotide exchange factor 3 (EPAC1).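 Further: plate controls were DMSO for no effect and ATA control for full effect; nearly all actives have a fitted effect of over 75% in size.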 To be noted: EPAC1 Rap1B-BODIPY-GDP exchange, fluorescence; series mostly up to 150 µM; activity change, negative = inhibition: at the top concentration. A digest of the protocol: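 Nucleotide exchange followed as fluorescence loss when BODIPY-GDP leaves Rap1B (480 nm excitation, 540 nm emission), read at 5 min intervals over 30 min. Reaction: 100 nM EPAC1, 250 nM RAP1B-BODIPY-GDP, 50 uM GDP; ATA and DMSO define normalization.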
UniProt O95398, sequence (O95398 whole entry, looked up): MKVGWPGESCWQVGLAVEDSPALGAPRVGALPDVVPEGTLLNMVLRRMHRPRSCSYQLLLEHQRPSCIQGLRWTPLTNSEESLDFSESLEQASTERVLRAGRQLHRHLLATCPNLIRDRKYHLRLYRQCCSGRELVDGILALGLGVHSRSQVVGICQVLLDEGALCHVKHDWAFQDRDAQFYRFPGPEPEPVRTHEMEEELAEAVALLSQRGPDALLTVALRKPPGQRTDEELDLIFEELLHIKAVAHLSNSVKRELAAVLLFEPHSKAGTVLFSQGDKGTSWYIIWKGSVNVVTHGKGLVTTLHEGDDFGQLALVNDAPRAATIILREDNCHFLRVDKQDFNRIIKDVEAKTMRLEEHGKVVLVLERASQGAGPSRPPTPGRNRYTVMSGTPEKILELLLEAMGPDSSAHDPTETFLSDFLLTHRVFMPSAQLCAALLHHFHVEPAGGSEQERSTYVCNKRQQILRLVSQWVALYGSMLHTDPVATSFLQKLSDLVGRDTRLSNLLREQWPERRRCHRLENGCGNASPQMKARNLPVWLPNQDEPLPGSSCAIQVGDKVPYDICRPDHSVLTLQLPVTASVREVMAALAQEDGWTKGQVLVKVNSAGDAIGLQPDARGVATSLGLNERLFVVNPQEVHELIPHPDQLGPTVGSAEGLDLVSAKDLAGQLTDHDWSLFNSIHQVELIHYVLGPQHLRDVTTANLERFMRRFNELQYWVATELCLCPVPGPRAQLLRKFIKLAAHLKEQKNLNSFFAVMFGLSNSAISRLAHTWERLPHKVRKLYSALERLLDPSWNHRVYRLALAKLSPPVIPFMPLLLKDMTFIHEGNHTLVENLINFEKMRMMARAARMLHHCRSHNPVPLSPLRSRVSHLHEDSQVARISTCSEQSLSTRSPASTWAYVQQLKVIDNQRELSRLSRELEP
(In general: qHTS replaces the single test concentration by a dilution series.)
As to `Nc1nc2ccc([N+](=O)[O-])cc2s1`, the “activity change, negative = inhibition” value was inactive: 33.4% [at 320 µM].

In the case of `C=O`, the “activity change, negative = inhibition” value is inactive: 8.64%.

As for `COc1cc(C[C@H]2C(=O)OC[C@@H]2Cc2ccc(OC)c(OC)c2)ccc1O`, the “activity change, negative = inhibition” value was inactive: -7.14%.

Consider `O=C(c1csnn1)N1CCC2(CCN(Cc3cc(C(F)(F)F)cc(C(F)(F)F)c3)CC2)CC1`, for which the “activity change, negative = inhibition” value was inactive: -6.7%.

As for `O=c1c(-c2ccccc2)nc2cnc(N3CCOCC3)nc2n1Cc1ccc(F)cc1`, the “activity change, negative = inhibition” value is inactive: 20.3%.

Turning to `CCNc1ncc2nc(-c3ccc(OC)cc3)c(=O)n(Cc3cccc(OC)c3)c2n1`, the “activity change, negative = inhibition” value was inactive: 16.2%.

Turning to `NS(=O)(=O)c1cc2c(cc1C(F)(F)F)NC(Cc1ccccc1)NS2(=O)=O` (configuration not stated), the activity change, negative = inhibition entry is “inactive”.

`O[C@@H](c1cc(C(F)(F)F)nc2c(C(F)(F)F)cccc12)[C@H]1CCCCN1`: the “activity change, negative = inhibition” value is inactive: -6.35%.

For `C(=C\c1ccccn1)/c1ccccc1`, the “activity change, negative = inhibition” value was inactive: 5.74%.

`COc1ccc(CCNc2ncnc3sc(C(=O)N4CCCCC4)c(C)c23)cc1OC`: the “activity change, negative = inhibition” value was inactive: -10.5%.

In the case of `COc1ccc(-c2nc3cnc(OC)nc3n(-c3ccc(OC)cc3)c2=O)cc1`, the “activity change, negative = inhibition” value was inactive: 2.15%.

Take `CNC(=O)c1ccccc1Sc1ccc2c(/C=C/c3ccccn3)n[nH]c2c1`: the “activity change, negative = inhibition” value was inactive: 12.5%.

In the case of `O=S1(=O)CCOC[C@H](c2ccccc2)N1Cc1ccc(F)cc1`, the “activity change, negative = inhibition” value is inactive: -5.02%.

In the case of `O=C(Nc1cccc(F)c1)N1CC[C@@]2(CCCN(C(=O)c3cccc(F)c3)C2)C1`, the “activity change, negative = inhibition” value was inactive: 20.6%.

Take `CC(CN1c2ccccc2Sc2ccccc21)N(C)C` (configuration not stated): the activity change, negative = inhibition entry is “inactive”.

With `CCC(COC)NC(=O)c1cnn(-c2ncc3c(n2)-c2ccccc2CC3)c1C` (configuration not stated), the “activity change, negative = inhibition” value is inactive: 15.6%.

Consider `COc1ccc(CNc2cc(-c3ccccc3CN(C)C)ncn2)c(OC)c1`, for which the “activity change, negative = inhibition” value is inactive: -12.4%.

Regarding `CN(C)c1nc2c(Br)c(Br)c(Br)c(Br)c2[nH]1`, the “activity change, negative = inhibition” value was inactive: 2.14% [at 75.8 µM].

Take `CCC1CN(Cc2cn[nH]c2-c2ccccc2)Cc2cc(OC)ccc2O1` (configuration not stated): the “activity change, negative = inhibition” value is inactive: -12.9%.

As for `O=C(c1ccco1)N1CCC2(CC1)CN(c1cccc(-c3ccccc3)c1)C2`, the “activity change, negative = inhibition” value is inactive: -3.37%.

Consider `COc1ccc(C(=O)Oc2ccc3c(-c4ccc(OC)cc4)cc(=O)oc3c2)cc1`, for which the “activity change, negative = inhibition” value was inactive: 5.38%.

For the compound `COC(=O)C1CCCCN1Cc1nc(N(C)C)c2ccccc2n1` (configuration not stated), the “activity change, negative = inhibition” value was inactive: -12.6%.

As for `CC(C)[C@H](CO)Nc1nc(Nc2cc(N)cc(Cl)c2)c2ncn(C(C)C)c2n1`, the “activity change, negative = inhibition” value is inactive: -13%.

On to `COc1cc2c(c(OC)c1OC)-c1ccc(OC)c(=O)cc1[C@@H](NC(C)=O)CC2`, for which the activity change, negative = inhibition result was “inactive”.

As to `CN(CCO)C(=O)c1cn(C2CCN(Cc3cccc4ccccc34)CC2)nn1`, the “activity change, negative = inhibition” value is inactive: 12.2%.

As to `O=C(c1ccc(OCCN2CCCCC2)cc1)c1c(-c2ccc(O)cc2)sc2cc(O)ccc12`, the activity change, negative = inhibition entry was “inactive”.

For the compound `O=C1c2ccccc2-c2n[nH]c3cccc1c23`, the activity change, negative = inhibition result was “inactive”.

In the case of `COc1cccc(-c2nccc(-n3ccnc3)n2)c1`, the “activity change, negative = inhibition” value is inactive: -0.507%.

With `CCC(/C=C/C(C)C1CCC2C3CCC4=CC(=O)CC[C@@]4(C)C3CC[C@@]12C)C(C)C` (some centres not stated), the “activity change, negative = inhibition” value is inactive: -17.8%.

As for `COc1cc(-c2ccc(Cl)cn2)cc2c1OCCN(C(=O)c1ccccc1-n1cccn1)C2`, the “activity change, negative = inhibition” value is inactive: 11.5%.

As to `COCCn1c(=O)c(-c2ccc(F)cc2)nc2cnc(N(C)C)nc21`, the “activity change, negative = inhibition” value is inactive: 14.2%.

Turning to `CN1CCC(=O)N(CCSc2ccccc2)CC1`, the “activity change, negative = inhibition” value was inactive: 15.6%.

Regarding `COc1ccc(-n2c(=O)c(C)nc3cnc(Oc4cccc(Cl)c4)nc32)cc1`, the “activity change, negative = inhibition” value is inactive: -4.98%.

In the case of `CC(O)CN(C)C` (configuration not stated), the “activity change, negative = inhibition” value is inactive: 17.5%.

As to `COc1ccccc1CN1CCCC(n2cc(C(=O)N3CCCC3)nn2)C1` (configuration not stated), the “activity change, negative = inhibition” value is inactive: 7.64%.

For `N#Cc1cccc(-c2nc(NCc3cccnc3)c3ccccc3n2)c1`, the “activity change, negative = inhibition” value is inactive: 5.07%.

As to `COC(=O)C1=CO[C@@H](O[C@H]2OC(CO)C(O)C(O)C2O)C2C1CC(O)C2C` (some centres not stated), the “activity change, negative = inhibition” value was inactive: 21.5%.

As to `CS(=O)(=O)N1CCC[C@@]2(CCN(Cc3ccc(C#N)cc3)C2)C1`, the “activity change, negative = inhibition” value was inactive: 24%.

Take `COc1ccc(CNc2ncncc2-c2ccccc2Cl)c(OC)c1`: the “activity change, negative = inhibition” value was inactive: -24.8%.

For `O[Si](CCCN1CCCCC1)(c1ccc(F)cc1)C1CCCCC1` (configuration not stated), the “activity change, negative = inhibition” value is inactive: 8.98% [at 75.8 µM].

Take `c1ccc(N2CCN(CCCOc3ccc4c(c3)OCO4)CC2)cc1`: the activity change, negative = inhibition entry was “inactive”.

As for `O=C(C1CCCCC1)N(CCN1CCN(c2ccccc2CO)CC1)c1ccccn1`, the “activity change, negative = inhibition” value was inactive: 5.35%.

In the case of `Cc1cc2c(cc1C)NC1(C[C@H]3CCC(=O)N4CC[C@@H](C1)[C@@H]34)C(=NC(C)(C)CC(C)(C)C)N2` (some centres not stated), the “activity change, negative = inhibition” value was inactive: -27.7%.

`CC(C)C[C@@H](CO)N1CCN(CC(C)C)CCC1=O`: the activity change, negative = inhibition result is “inactive”.

With `CC1CN(CCC(=O)N2CCCC(C(=O)c3nccn3C)C2)Cc2cc(Cl)ccc2O1` (configuration not stated), the “activity change, negative = inhibition” value is inactive: 17%.

As to `Fc1ccc(Nc2nc(-c3ccoc3)nc3ccccc23)cc1`, the “activity change, negative = inhibition” value was inactive: 17.3%.

For `O=c1cc(-c2cc3ccccc3oc2=O)c2ccc(O)cc2o1`, the “activity change, negative = inhibition” value was inactive: 9.67%.

Regarding `CNc1nc(-c2ccccc2CN(C)C)nc2ccccc12`, the “activity change, negative = inhibition” value was inactive: 19%.

As for `FC(F)(F)c1ccccc1-c1nc(NCc2cccs2)c2ccccc2n1`, the “activity change, negative = inhibition” value is inactive: -17.8%.

Regarding `CC(C)=CCc1c(O)cc2occ(-c3ccc4c(c3)OCO4)c(=O)c2c1O`, the “activity change, negative = inhibition” value was inactive: -9.03%.

Consider `O=S(=O)(c1ccccc1)N1CCC[C@@]2(CCN(c3ncccn3)C2)C1`, for which the “activity change, negative = inhibition” value was inactive: 19.2%.

For `NC(CCC(=O)NCS(=O)(=O)O)C(=O)O` (configuration not stated), the “activity change, negative = inhibition” value is inactive: 16.6%.
